Further values from the same series stand in other lists.
Columns and labels:
Rat [1] = assay: concentration in plasma after dosing; conditions: dosed: Methyleugenol, 37 mg/kg, iv, Male, F344/N
Rat [2] = assay: concentration in plasma after dosing; conditions: dosed: Methyleugenol, 37 mg/kg, iv, Male, F344/N; remark: listed apart in the source
Rat [3] = assay: concentration in plasma after dosing; conditions: dosed: Methyleugenol, 37 mg/kg, iv, Female, F344/N
Rat [4] = assay: concentration in plasma after dosing; conditions: dosed: Methyleugenol, 37 mg/kg, iv, Female, F344/N; remark: listed apart in the source
Rat [5] = assay: concentration in plasma after dosing; conditions: dosed: Methyleugenol, 37 mg/kg, iv, Male, F344/N; remark: listed apart in the source
Rat [6] = assay: concentration in plasma after dosing; conditions: dosed: Methyleugenol, 37 mg/kg, iv, Male, F344/N; remark: listed apart in the source
Rat [7] = assay: concentration in plasma after dosing; conditions: iv
Rat [8] = assay: concentration in plasma after dosing; conditions: dosed: Methyleugenol, 37 mg/kg, iv, Male, F344/N; remark: listed apart in the source
Rat [9] = assay: concentration in plasma after dosing; conditions: dosed: Methyleugenol, 37 mg/kg, iv, Female, F344/N; remark: listed apart in the source
Rat [10] = assay: concentration in plasma after dosing; conditions: dosed: Methyleugenol, 37 mg/kg, iv, Female, F344/N; remark: listed apart in the source
Rat [11] = assay: concentration in plasma after dosing; conditions: dosed: Methyleugenol, 37 mg/kg, iv, Female, F344/N; remark: listed apart in the source
Rat [12] = assay: concentration in plasma after dosing; conditions: dosed: Methyleugenol, 37 mg/kg, iv, Female, F344/N; remark: listed apart in the source
Rat [13] = assay: concentration in plasma after dosing; conditions: dosed: Methyleugenol, 37 mg/kg, iv, Male, F344/N; remark: listed apart in the source
Rat [14] = assay: concentration in plasma after dosing; conditions: dosed: Methyleugenol, 37 mg/kg, iv, Female, F344/N; remark: listed apart in the source
Rat [15] = assay: concentration in plasma after dosing; conditions: dosed: Methyleugenol, 37 mg/kg, iv, Male, F344/N; remark: listed apart in the source
Rat [16] = assay: concentration in plasma after dosing; conditions: dosed: Methyleugenol, 37 mg/kg, iv, Male, F344/N; remark: listed apart in the source
Rat [17] = assay: concentration in plasma after dosing; conditions: dosed: Methyleugenol, 37 mg/kg, iv, Female, F344/N; remark: listed apart in the source
Rat [18] = assay: concentration in plasma after dosing; conditions: dosed: Methyleugenol, 37 mg/kg, iv, Male, F344/N; remark: listed apart in the source
Rat [19] = assay: concentration in plasma after dosing; conditions: dosed: Methyleugenol, 37 mg/kg, iv, Female, F344/N; remark: listed apart in the source
Rat [20] = assay: concentration in plasma after dosing; conditions: dosed: Methyleugenol, 37 mg/kg, iv, Female, F344/N; remark: listed apart in the source
Rat [21] = assay: concentration in plasma after dosing; conditions: dosed: Methyleugenol, 37 mg/kg, iv, Male, F344/N; remark: listed apart in the source
Rat [22] = assay: concentration in plasma after dosing; conditions: dosed: Methyleugenol, 37 mg/kg, iv, Female, F344/N; remark: listed apart in the source
Rat [23] = assay: concentration in plasma after dosing; conditions: dosed: Methyleugenol, 37 mg/kg, iv, Male, F344/N; remark: listed apart in the source
Rat [24] = assay: concentration in plasma after dosing; conditions: dosed: Methyleugenol, 37 mg/kg, iv, Female, F344/N; remark: listed apart in the source
Rat [25] = assay: concentration in plasma after dosing; conditions: dosed: Methyleugenol, 37 mg/kg, iv, Female, F344/N; remark: listed apart in the source
Rat [26] = assay: concentration in plasma after dosing; conditions: dosed: Methyleugenol, 37 mg/kg, iv, Male, F344/N; remark: listed apart in the source
Rat [27] = assay: concentration in plasma after dosing; conditions: dosed: Tetralin, 20 mg/kg, iv, Male, F344
Rat [28] = assay: concentration in plasma after dosing; conditions: dosed: Tetralin, 20 mg/kg, iv, Male, F344; remark: listed apart in the source
Rat [29] = assay: concentration in plasma after dosing; conditions: dosed: Tetralin, 20 mg/kg, iv, Male, F344; remark: listed apart in the source
Rat [30] = assay: concentration in plasma after dosing; conditions: dosed: Tetralin, 20 mg/kg, iv, Male, F344; remark: listed apart in the source
Rat [31] = assay: concentration in plasma after dosing; conditions: dosed: Tetralin, 20 mg/kg, iv, Male, F344; remark: listed apart in the source
Rat [32] = assay: concentration in plasma after dosing; conditions: dosed: Tetralin, 20 mg/kg, iv, Male, F344; remark: listed apart in the source
Rat [33] = assay: concentration in plasma after dosing; conditions: 2 h; dosed: Tetralin; 20 mg/kg; iv; Male; F344
Rat [34] = assay: concentration in plasma after dosing; conditions: dosed: Tetralin, 20 mg/kg, iv, Male, F344; remark: listed apart in the source
Rat [35] = assay: concentration in plasma after dosing; conditions: dosed: Tetralin, 20 mg/kg, iv, Male, F344; remark: listed apart in the source
Rat [36] = assay: concentration in plasma after dosing; conditions: dosed: Tetralin, 20 mg/kg, iv, Male, F344; remark: listed apart in the source
Rat [37] = assay: concentration in plasma after dosing; conditions: 2 h; dosed: Tetralin; 20 mg/kg; iv; Male; F344; remark: listed apart in the source
human = assay: concentration in blood after dosing; conditions: dosed: trichloroethylene, 100 ppm, inhalation, duration: 6 hr, male
Summary of the method: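 Points were largely digitised from plot screenshots with WebPlotDigitizer or otherwise copied from tables, and they remain in the units each source reported. They come from published in vivo toxicokinetic studies and two structured collections. Sampling and analytical methods follow each source and were often not reported.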

C=CCc1ccc(OC)c(OC)c1 [Methyleugenol ]
Conditions | concentration in plasma [ng/mL]
Rat [1], 3 h | 194
Rat [1], 5 min | 21500
Rat [2], 1.5 h | 899
Rat [2], 5 min | 20300
Rat [3], 0.5 h | 4760
Rat [3], 8 h | 71.3
Rat [4], 1.5 h | 957
Rat [4], 20 min | 8310
Rat [5], 1.5 h | 936
Rat [5], 20 min | 9170
Rat [6], 1 h | 1760
Rat [6], 2 h | 468
Rat [8], 4 h | 80
Rat [8], 10 min | 13200
Rat [9], 1.5 h | 845
Rat [9], 2 min | 27800
Rat [10], 1 h | 1090
Rat [10], 4 h | 186
Rat [11], 8 h | 53.1
Rat [11], 20 min | 8110
Rat [12], 0.5 h | 3990
Rat [12], 2 h | 377
Rat [13], 0.5 h | 5220
Rat [13], 3 h | 146
Rat [14], 5 min | 24400
Rat [14], 6 h | 108
Rat [15], 2 min | 27700
Rat [15], 4 h | 107
Rat [16], 1 h | 1750
Rat [16], 6 h | 45.8
Rat [17], 1.5 h | 800
Rat [17], 5 min | 22500
Rat [18], 6 h | 89
Rat [18], 10 min | 15500
Rat [19], 0.5 h | 3990
Rat [19], 6 h | 123
Rat [20], 3 h | 281
Rat [20], 10 min | 13800
Rat [21], 8 h | 32.3
Rat [21], 20 min | 7930
Rat [22], 1 h | 1280
Rat [22], 2 h | 455
Rat [23], 2 min | 26100
Rat [23], 8 h | 25.9
Rat [24], 1 h | 1570
Rat [24], 4 h | 161
Rat [25], 2 min | 26900
Rat [25], 3 h | 338
Rat [26], 0.5 h | 3650
Rat [26], 2 h | 573

concentration in plasma [ng/mL], Rat [7], dosed: Methyleugenol, 37 mg/kg, F344/N
Conditions | Female | Male
0.15 h | 16900 | –
0.5 h | – | 6380
1 h | – | 1600
1.5 h | – | 1170
2 h | 646 | 421
2 min | 26200 | 22000
3 h | 294 | 261
4 h | 152 | 89.3
5 min | 21500 | 21300
6 h | 92.9 | 47.6
8 h | 70.6 | 48.2
10 min | 18700 | 15500
20 min | 8070 | 6060

c1ccc2c(c1)CCCC2 [Tetralin]
Conditions | concentration in plasma [µg/g]
Rat [27], 0.25 h | 10.4
Rat [27], 6 h | 0.113
Rat [28], 0.75 h | 1.89
Rat [28], 12 h | 0.0274
Rat [29], 0.5017 h | 4.16
Rat [29], 8 h | 0.0756
Rat [30], 0.75 h | 1.83
Rat [30], 12 h | 0.0332
Rat [31], 0.5033 h | 4.96
Rat [31], 8 h | 0.0537
Rat [32], 1 h | 0.934
Rat [32], 24 h | 0.00972
Rat [34], 4 h | 0.146
Rat [34], 301 s | 23.5
Rat [35], 0.25 h | 11.8
Rat [35], 6 h | 0.083
Rat [36], 1 h | 1.12
Rat [36], 24 h | 0.00684

Rat [7], dosed: Tetralin, 20 mg/kg, Male, F344
Conditions | concentration in plasma [µg/g]
0.2517 h | 6.62
0.5033 h | 3.7
0.75 h | 1.96
1 h | 1.15
2 h | 0.368
6 h | 0.0584
8 h | 0.0542
12 h | 0.0317
24 h | 0.00819
301 s | 18.3

Conditions | concentration in plasma [µg/g]
Rat [33] | 0.319
Rat [37] | 0.367

OCC(Cl)(Cl)Cl [trichloroethanol]
human
Conditions | concentration in blood [ng/mL]
96 h | 13900
160 h | 70
